Assay results reported in PubChem BioAssay AID651820 (National Center for Advancing Translational Sciences (NCATS), 2012).
Several values for one entry are separate records, joined by “and”; a condition that tells them apart may be missing. Equal entries are not always repeated. Out of some 340,000 compounds screened, about 12,000 (3.5%) were called active. Inconclusive means that the source gave no clear call. Such entries were picked first, then a sample of the others. Calls come from the whole dose curve; as a rule, active = well fitted inhibition curve with a large enough effect; inconclusive = small, poorly fitted or top-dose-only effect, or another doubt; inactive = no such curve, though single readings can be large or run the other way. Potencies of inconclusive entries are doubtful fits and often do not repeat.

test: qHTS Assay for Inhibitors of Hepatitis C Virus (HCV); settings: Huh7.5.1 HCVcc-Cre (HCVcc is cell-culture hepatitis C virus) infection, luciferase reporter, 44 h; activity change, negative = inhibition: at 41.8 µM (top of the series) unless noted
In short: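 Cells (1,000/well) were plated 4 h before compound, then infected with HCVcc-Cre virus (~0.5 moi). After 44 h further culture, infection was read as luciferase luminescence following a 15 min substrate incubation at room temperature.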
% is set by controls: 0 for no effect and ±100 for the full control effect; potency is the fitted concentration of half-maximal effect; tags give direction and shape of the fitted curve.

Row | Structure (SMILES) | Potency | activity change, negative = inhibition
1 | COc1ccc(Cn2c(=O)[nH]c3cc(C(=O)NC4CCN(Cc5ccccc5)CC4)ccc32)cc1 | active: 10 µM | 
2 | Cn1c(SCC(=O)Nc2ccc(F)cc2)nnc1-c1cccnc1 | inactive | 
3 | CCCCn1c(N)c(-c2nc3ccccc3s2)c2c([N+](=O)[O-])nn(CC)c(=O)c21 | inconclusive: 2.51 µM [inhibitor, single point] | 
4 | Cc1nn(Cc2ccccc2)c(C)c1NC(=O)CSc1nc(C2CC2)nc2c1cnn2-c1ccccc1 | inconclusive: 31.6 µM [inhibitor, single point] | 
5 | O=C(COc1ncnc2cc([N+](=O)[O-])ccc12)NCCc1ccc(Cl)cc1 | inconclusive: 31.6 µM [inhibitor, single point] | 
6 | CC(NCc1ccc(-c2ccccc2)cc1)C(O)c1ccccc1 (stereo unspecified) | inconclusive: 12.6 µM [inhibitor, partial curve] | 
7 | CCOc1cc(NC(=O)c2ccccc2C)c(OCC)cc1NC(=O)C1=Cc2ccccc2OC1 | inconclusive: 0.891 µM [inhibitor, full curve] | 
8 | O=C(Oc1cccc(C(=S)N2CCOCC2)c1)c1ccc([N+](=O)[O-])cc1[N+](=O)[O-] | inactive | 
9 | CC1OC(OC2C=C3CCC4C(CCC5(C)C(c6ccc(=O)oc6)CCC45O)C3(C)CC2)C(O)C(OC2OC(CO)C(O)C(O)C2O)C1O (stereo unspecified) | active: 15.8 µM | 
10 | COc1ccc(C(=O)C2CCCN(Cc3c[nH]c4ccccc34)C2)c(OC)c1 (stereo unspecified) | inconclusive: 22.4 µM [inhibitor, single point] | 
11 | CC(=O)Nc1ccc(NC(=O)C(C)OC(=O)/C=C/c2cn(-c3ccccc3)nc2-c2cccnc2)cc1 (stereo unspecified) | inconclusive: 22.4 µM [inhibitor, single point] | 
12 | CC(=O)c1c(C)[nH]c(C(=O)Nc2cccc(C(F)(F)F)c2)c1C | inconclusive: 3.55 µM [inhibitor, partial curve] | 
13 | Cc1cc(NC(=O)CN2CCCC(C)C2)n(-c2nc3ccccc3s2)n1 (stereo unspecified) | inconclusive: 7.08 µM [inhibitor, partial curve] | 
14 | O=C1CCCC2=C1C(c1ccc(O)c(Br)c1)C1=C(CCCC1=O)N2c1ccccc1 | inconclusive: 31.6 µM [inhibitor, single point] | 
15 | CC(=O)N1CCN(c2ncnc3sc(-c4ccccc4)cc23)CC1 | inconclusive: 11.2 µM [inhibitor, single point] | 
16 | COc1ccc(C(=O)Nc2cccc(-c3cc4ccccc4oc3=O)c2)cc1[N+](=O)[O-] | inconclusive: 2.24 µM [inhibitor, full curve] | 
17 | CCc1ccc(OCC(=O)O/N=C(\N)Cc2ccc([N+](=O)[O-])cc2)cc1 | inactive | 
18 | COc1cccc(OCCOCCN(C)CCO)c1 | inconclusive: 31.6 µM [inhibitor, single point] | 
19 | CCN(CC)S(=O)(=O)c1cc(NC(=O)C(C)N2CCN(c3ccccn3)CC2)ccc1C (stereo unspecified) | inconclusive: 6.31 µM [inhibitor, partial curve] | 
20 | CCOC(=O)c1cccc(NC(=O)c2ccc3c(c2)OCO3)c1 | inconclusive: 10 µM [inhibitor, partial curve] | 
21 | Clc1nc(-c2cccnc2)nc2scc(-c3ccccc3)c12 | inconclusive: 31.6 µM [inhibitor, single point] | 
22 | CCN(CC)c1ccc(/C=N/NC(=O)c2ccc3c(c2)OCCO3)cc1 | inconclusive: 11.2 µM [inhibitor, partial curve] | 

Row | Structure (SMILES) | Potency | activity change, negative = inhibition
23 | COc1ccc(-c2csc(NC3=NCCCCC3)n2)cc1 | inconclusive: 3.55 µM [inhibitor, full curve] | 
24 | Cc1ccc(S(=O)(=O)N2CCCN(C(=O)c3cc4ccccc4[nH]3)CC2)cc1 | inactive | 
25 | Cc1cccc(NC(=O)COn2nnc3ccc(S(C)(=O)=O)cc32)c1 | inconclusive: 31.6 µM [inhibitor, single point] | 
26 | CCOC(=O)Cc1nn(Cc2nc(-c3ccc(C#N)cc3)cs2)c(=O)c2ccccc12 | active: 10 µM | 
27 | Cc1c(Cl)cccc1NC(=O)COC(=O)CCc1nc2ccccc2n1-c1ccccc1 | inconclusive: 31.6 µM [inhibitor, single point] | 
28 | COc1cccc(OCc2cc(C(=O)N(C)Cc3nc4ccccc4[nH]3)no2)c1 | inconclusive: 14.1 µM [inhibitor, single point] | 
29 | COc1ccc2nccc(/C=C/c3ccnc4ccc(OC)cc34)c2c1 | inconclusive: 14.1 µM [inhibitor, single point] | 
30 | COc1ccc(CN(C)CC(=O)Nc2ccccc2C(F)(F)F)cc1 | inactive | 
31 | COc1ccc(S(=O)(=O)N2CCC(C(=O)Nc3ccccc3N3CCCC3)CC2)cc1OC | inconclusive: 31.6 µM [inhibitor, single point] | 
32 | Cc1ccc(NNC(=O)c2ccno2)cc1C | inconclusive: 12.6 µM [inhibitor, partial curve] | 
33 | N#CC1=C(N2CCCCC2)c2cc3c(n2C1=O)CCCC3 | inconclusive: 31.6 µM [inhibitor, single point] | 
34 | Cc1ccc(S(=O)(=O)NC(CC(C)C)C(=O)Nc2ccncc2)cc1 (stereo unspecified) | inactive | 
35 | OC(CN1CCN(c2ccccn2)CC1)Cn1c2ccccc2c2ccccc21 (stereo unspecified) | inconclusive: 31.6 µM [inhibitor, single point] | 
36 | CC1CCC(NC(=O)c2cc3c(=O)n(C)c4ccccc4c3n2C)CC1 (stereo unspecified) | inactive | 
37 | CCCn1c2ccccc2c2nc3ccccc3nc21 | inconclusive: 10 µM [inhibitor, partial curve] | 
38 | COc1ccc(C2=NN(C(=O)c3ccccc3)C(c3ccc(OC)c(OC)c3)C2)cc1OC (stereo unspecified) | inactive | 
39 | COc1ccc(/C=C/C(=O)c2ccc(C(=O)/C=C/c3ccc(OC)c(OC)c3)cc2)cc1OC | active: 4.47 µM | 
40 | Cc1cc(C)c(C#N)c(SCC(=O)Nc2ccc3c(c2)OCO3)n1 | inconclusive: 10 µM [inhibitor, partial curve] | 
41 | CCN(CC)c1ccc(C(=O)N/N=C(\C)c2cccnc2)cc1 | inconclusive: 3.55 µM [inhibitor, partial curve] | 
42 | O=C(Nc1ccncc1)c1cccc2ccccc12 |  | inconclusive: -36.5% [inhibitor]
43 | COc1cc2[nH]c(=O)n(CCCC(=O)NCCc3ccccc3)c(=O)c2cc1OC | inconclusive: 5.62 µM [inhibitor, single point] | 
44 | c1n[nH]c(NC2=NCCC2)n1 | inactive | 

Row | Structure (SMILES) | Potency | activity change, negative = inhibition
45 | C=CCN1C(=O)/C(=C/c2ccc(O)cc2)S/C1=N/c1nccs1 | inconclusive: 35.5 µM [inhibitor, single point] | 
46 | CCc1cc(C(=O)N=Nc2c(O)[nH]c3ccc([N+](=O)[O-])cc23)c2ccccc2n1 | inconclusive: 8.91 µM [inhibitor, partial curve] | 
47 | CCOc1ccc(/C=N/NC(=O)c2cc3c(OC)cc(OC)cc3[nH]2)cc1OC | inconclusive: 20 µM [inhibitor, partial curve, poor fit] | 
48 | Cc1ccc(C(=O)Oc2csc(=S)n2C(=O)c2ccc(C)cc2)cc1 | inactive | 
49 | CC(C)n1c(O)c(C2c3cc(Cl)ccc3Oc3[nH]c(=O)n(C(C)C)c(=O)c32)c(=O)[nH]c1=O (stereo unspecified) | active: 5.01 µM | 
50 | COc1ccc(NC(=O)c2ccco2)cc1NC(=O)COc1ccccc1[N+](=O)[O-] | inconclusive: 5.01 µM [inhibitor, single point] | 
51 | COc1ccc2c(c1)C(c1ccc([N+](=O)[O-])cc1)=NNC(c1ccco1)=N2 | inconclusive: 15.8 µM [inhibitor, single point] | 
52 | Cc1ccc(O)c(C(CC(=O)N2CCCC2)c2ccccc2)c1 (stereo unspecified) | inactive | 
53 | Cc1nc2ccccc2c(=O)n1NC(=O)c1cc(Br)ccc1Cl | inactive | 
54 | Cc1cccc(NC(=O)CNC(=O)c2ccc3nc[nH]c3c2)c1C | inactive | 
55 | S=C(Nc1ccccc1)N1CCCCCC1 | inactive | 
56 | CCCc1nc2ccc(NC(=O)NCCC(=O)OCC)cc2c(=O)n1Cc1cccc(Cl)c1 | inconclusive: 11.2 µM [inhibitor, partial curve] | 
57 | O=C(Nc1nc(-c2nc3ccccc3s2)cs1)C1CC1 | inconclusive: 14.1 µM [inhibitor, single point] | 
58 | COc1cc2c(cc1OC)C(c1ccc(Br)cc1)N(C(=O)c1ccccc1C(=O)O)CC2 (stereo unspecified) | inactive | 
59 | O=C(CNC1CCCCC1)Nc1ccc(S(=O)(=O)N2CCCCC2)cc1 | inconclusive: 31.6 µM [inhibitor, single point] | 
60 | C=C(C)n1c(=O)n(Cc2ccc(C)cc2)c2ccccc21 | inconclusive: 31.6 µM [inhibitor, single point] | 
61 | CCOC(=O)c1[nH]c2cc(OC)c(OC)cc2c1NC(=O)C(C)N1CCN(Cc2ccccc2)CC1 (stereo unspecified) | inconclusive: 22.4 µM [inhibitor, single point] | 
62 | CCNC(=O)c1sc2cc(C)ccc2c1Cl | inconclusive: 31.6 µM [inhibitor, single point] | 
63 | CCOc1ccccc1CNC(=O)C1CCCN(c2nnc(C)c3c(C)n(-c4ccccc4)nc23)C1 (stereo unspecified) | inconclusive: 2.82 µM [inhibitor, single point] | 
64 | COc1ccc(OC)c(S(=O)(=O)n2cnc3ccccc32)c1 | inconclusive: 0.501 µM [inhibitor, full curve, poor fit] | 
65 | COc1ccc(C(=O)N2CCN(c3nc4cc(C)ccc4cc3C#N)CC2)c(OC)c1 | inconclusive: 31.6 µM [inhibitor, single point] and inconclusive: 14.1 µM [inhibitor, partial curve] | 
66 | COc1ccc(Cl)cc1C=CC=NNS(=O)(=O)c1ccc(C)cc1 | inconclusive: 12.6 µM [inhibitor, partial curve] | 
